# Measurements from PubChem BioAssay AID995 (National Center for Advancing Translational Sciences (NCATS), 2007).
# Out of some 72,000 compounds screened, about 710 (0.99%) were called active. Inconclusive results, whose numbers are uncertain, are shown with a selection of clear calls. The call rests on the fitted dose curve; in most records, active means well fitted inhibition curve with a large enough effect; inconclusive means small, poorly fitted or top-dose-only effect; inactive means no such curve, though single readings can be large or run the other way. Potencies of inconclusive entries are left out as doubtful fits.
# Experiment: qHTS Assay for Inhibitors of the ERK Signaling Pathway using a Homogeneous Screening Assay; further: nearly all actives have a fitted effect of over 55% in size
# Conditions: HEK293-V1b, vasopressin-stimulated pERK AlphaScreen; activity, negative = inhibition: at 57.5 µM (top of the series) unless noted
# Method in brief: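 HEK293 cells stably expressing V1b receptor, seeded overnight in 1% FBS, were treated with compounds for 30 min at 37C, then stimulated 5 min with 25 nM vasopressin; phospho-ERK read by AlphaScreen SureFire after lysis.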
# On the % scale 0 is the no-effect control and ±100 the full control effect; potency means the concentration at half of the fitted maximal effect; tags describe the fitted curve by direction and shape.
Structure (SMILES),Potency,"activity, negative = inhibition"
CCOc1ccccc1N1CCN(C(=O)Nc2cccc(Cl)c2)CC1,"inconclusive [inhibitor, single point]",–
O=c1c(-c2cccc(Cl)c2)nc2cncnc2n1Cc1ccc(F)cc1,"inconclusive [inhibitor, partial curve]",–
Cc1ccc(-c2nnc(SCC(=O)N3CC(C)CC(C)C3)o2)cc1C (stereo unspecified),"inconclusive [inhibitor, single point]",–
COC(=O)Cc1cc(=O)[nH]c(/N=C(/NC(=O)c2ccccc2)Nc2ccccc2C)n1,"inconclusive [inhibitor, partial curve, poor fit]",–
CNC(=O)[C@H]1O[C@H](n2cnc3c(NCc4cccc(I)c4)nc(Cl)nc32)[C@@H](O)[C@@H]1O,active: 15.8 µM,–
O=C1C(C=Nc2ccccc2O)=C(O)c2ccccc21,"inconclusive [inhibitor, partial curve]",–
O=C(Nc1ccc(Nc2ccc3c(c2)C(=O)c2ccccc2C3=O)c2c1C(=O)c1ccccc1C2=O)c1ccccc1,–,inactive: -8.95% [at 11.5 µM]
CCCCN1c2ccccc2N(CCCO)c2cc(C)nnc21,"inconclusive [inhibitor, partial curve]",–
COc1cccc(-c2nc(NC3CCNCC3)c3ccccc3n2)c1,"inconclusive [inhibitor, single point]",–
CN1c2ccccc2C(C)(C)C12C=Cc1cc(O)ccc1O2 (stereo unspecified),inactive,–
O=S(=O)(NCCOc1cccc2cccnc12)c1ccc(F)cc1,–,inconclusive: -33.2% [inhibitor]
CN(C)CCNc1oc(-c2ccccc2F)nc1C#N,inactive,–
Clc1ccccc1OCCn1ccnc1,"inconclusive [inhibitor, single point]",–
COCCCn1c(CCC(=O)O)ccc1-c1ccc(F)cc1,"inconclusive [inhibitor, partial curve]",–
CN(Cc1ccco1)c1ncnc2ccc(-c3ccccc3C#N)cc12,"inconclusive [inhibitor, full curve, poor fit]",–
O=C(Nc1ccc(S(=O)(=O)N2CCCCCC2)cc1)c1ccc(Br)o1,"inconclusive [inhibitor, full curve, poor fit]",–
COc1ccc2nc(NC(=O)C3CCCN(S(=O)(=O)c4cccc5nonc45)C3)sc2c1 (stereo unspecified),"inconclusive [inhibitor, partial curve]",–
CCOC(=O)c1c(C)[nH]c(C(C)=O)c1C,"inconclusive [inhibitor, partial curve]",–
CCNc1ncc2nc(-c3ccccc3)c(=O)n(CCc3ccccc3)c2n1,"inconclusive [inhibitor, full curve, poor fit]",–
CC1=CC2=C(OC1N(C)C)c1cccc3cccc(c13)C2=O (stereo unspecified),"inconclusive [inhibitor, partial curve]",–
COc1cccc(N2CCN(C(=O)C3CCCN(S(=O)(=O)c4cnc[nH]4)C3)CC2)c1 (stereo unspecified),"inconclusive [inhibitor, partial curve]",–
CS(=O)(=O)N1CCC2(CCCN(C(=O)Nc3cccc(F)c3)C2)CC1,inactive,–

Structure (SMILES),Potency,"activity, negative = inhibition"
Cc1ccccc1C(=O)Nc1ccc(Br)c(C)n1,"inconclusive [inhibitor, partial curve, poor fit]",–
COc1ccc2[nH]cc(CCNc3cc(-c4ccccc4CN(C)C)ncn3)c2c1,"inconclusive [inhibitor, partial curve]",–
CCOC(=O)c1cccc(NC(=O)CSc2nnc(C3CCCCC3)n2CC)c1,"inconclusive [inhibitor, partial curve]",–
Cc1ccccc1-c1cc(Nc2ccc(F)cc2)ncn1,"inconclusive [inhibitor, partial curve]",–
CC/C(=C(/CC)c1ccc(O)cc1)c1ccc(O)cc1,"inconclusive [inhibitor, full curve, poor fit]",–
COc1ccc2nc3sc(C(=O)NCc4cccs4)c(N)c3cc2c1,"inconclusive [inhibitor, partial curve]",–
O=C(NCCCN1CCCCC1)c1ccc2c(=O)n(CCc3ccccc3)c(=O)[nH]c2c1,inactive,–
CC(C)(Oc1ccc(Cl)cc1)C(=O)Nc1ccc2oc(-c3ccncc3)nc2c1,"inconclusive [inhibitor, single point]",–
O=C(CSc1nnc(-c2ccco2)o1)NC(=O)Cc1ccccc1,inactive,–
COc1cc(C(=O)Nc2nccs2)ccc1OCc1c(C)noc1C,"inconclusive [inhibitor, partial curve]",–
CCOc1ccc(Nc2nc(CC(=O)OC)cc(=O)[nH]2)cc1,"inconclusive [inhibitor, partial curve]",–
Fc1ccc(OCc2nc(-c3ccc(Br)o3)no2)c(F)c1,inactive,–
CN(C)/C=N/c1nc2ccc3c(c2s1)CCCC3,"inconclusive [inhibitor, single point]",–
CCN(CC)c1ccc(NC(=O)c2ccc(Br)o2)cc1,"inconclusive [inhibitor, partial curve]",–
CC1CCCN(c2ccc(C(=O)NCc3cccs3)cn2)C1 (stereo unspecified),active: 15.8 µM,–
Cc1cc(NC(=O)c2cnn3c(C(F)F)cc(-c4ccccc4)nc23)no1,"inconclusive [inhibitor, full curve, poor fit]",–
C=CCOc1nc(N2CCCC2)nc(N2CCCC2)n1,"inconclusive [inhibitor, partial curve]",–
O=C(COC(=O)Cc1cn2ccsc2n1)NC12CC3CC(CC(C3)C1)C2,"inconclusive [inhibitor, single point]",–
CCOC(=O)C1CCN(S(=O)(=O)c2cc(Br)cc3c2N(C(C)=O)C(C)C3)CC1 (stereo unspecified),"inconclusive [inhibitor, partial curve, poor fit]",–
CCOC(=O)C1CCCN(C(=O)c2cc3c(=O)n(C)c4ccccc4c3n2C)C1 (stereo unspecified),"inconclusive [inhibitor, single point]",–
CCOC(=O)Nc1nnc(-c2cccc(OC)c2)s1,inactive,–
Cc1ccc(-c2csc(=S)n2CC(=O)OCC(=O)NCc2ccco2)cc1,"inconclusive [inhibitor, single point]",–

Structure (SMILES),Potency,"activity, negative = inhibition"
CCOC(=O)/C(C#N)=C1/C=Cc2ccccc2N1CC,"inconclusive [inhibitor, single point]",–
Cc1ccc(-c2nc3cnccn3c2Nc2ccc3c(c2)OCCO3)o1,"inconclusive [inhibitor, partial curve]",–
O=C(c1cccc(C(=O)N2CCN(c3ccccc3F)CC2)n1)N1CCN(c2ccccc2F)CC1,"inconclusive [inhibitor, partial curve]",–
COC1(C)CCC2OC2(C)CCC2C1CC2(C)C (stereo unspecified),inactive,–
c1ccc(-n2ncc3c(NCc4ccco4)ncnc32)cc1,"inconclusive [inhibitor, single point]",–
CCCc1nc(NCc2ccncc2)c2nnn(Cc3ccccc3F)c2n1,"inconclusive [inhibitor, partial curve]",–
CCCCn1nnc(NC(=O)c2cc3ccccc3o2)n1,"inconclusive [inhibitor, full curve, poor fit]",–
O=C(c1cc(-c2ccccc2O)on1)N1CCc2ccccc2C1,"inconclusive [inhibitor, single point]",–
COC(=O)CSc1nc2sc3c(c2c(=O)n1-c1ccccc1)CCN(C)C3,"inconclusive [inhibitor, partial curve]",–
O=C(c1cccc(F)c1)N1CCC2(CCN(Cc3ccccc3)CC2)CC1,"inconclusive [inhibitor, single point]",–
c1ccc(CN2COc3c(ccc4c5c(ccc34)CN(Cc3ccccc3)CO5)C2)cc1,–,inactive: -5.83% [at 11.5 µM]
COc1ccc(Nc2ncnc3c2cnn3Cc2ccccc2)cc1OC,"inconclusive [inhibitor, partial curve]",–
Fc1ccc2nc(Nc3nc4c(s3)CCCC4)sc2c1,"inconclusive [inhibitor, partial curve]",–
C/C=C/Cn1c(Br)nc2c1c(=O)[nH]c(=O)n2C,"inconclusive [inhibitor, partial curve]",–
Cc1ccc(NC(=O)c2cc(-c3cccc(O)c3)on2)cc1C,active: 31.6 µM,–
CC(C)CCSc1nc2c(c(=O)[nH]c(=O)n2C)n1CCc1ccccc1,"inconclusive [inhibitor, partial curve]",–
O=c1cnc2cnc(Nc3ccccc3)nc2n1Cc1cccs1,"inconclusive [inhibitor, partial curve]",–
CC(=O)Nc1ccc2c(c1)/C(=C/c1ccc([N+](C)(C)C)cc1)c1ccccc1-2,–,inactive: 10.9% [at 11.5 µM]
COc1cc(/C=c2\s/c(=C(/C#N)C(=O)N3CCCC3)n(-c3ccccc3)c2=O)ccc1O,"inconclusive [inhibitor, partial curve]",–
CN1CCN(c2ncc3nc(-c4ccc(Cl)cc4)c(=O)n(Cc4cccs4)c3n2)CC1,"inconclusive [inhibitor, single point]",–
Cn1c(SCC(=O)N2CCN(c3ccccc3)CC2)nnc1-c1cc2ccccc2o1,"inconclusive [inhibitor, full curve]",–
O=C(Nc1cccnc1)c1ccccc1Oc1ccccc1,"inconclusive [inhibitor, partial curve]",–
